Experimental data taken from patent US20230338565A1, “ANTIBODY DRUG CONJUGATE, PREPARATION METHOD THEREFOR AND USE THEREOF” (SICHUAN KELUN-BIOTECH BIOPHARMACEUTICAL CO., LTD., priority 2020, published 2023).
“And” between values parts separate entries of the source, which are not always exact repeats. Identical values can stand only once.

Assays:
[1] = system: HuPrime gastric cancer GA0006 (high expression Claudin18.2 stomach tumor); experiment: 12.4 HuPrime gastric cancer GA0006 + Balb/c Nude mice PDX model; format: in vivo; details: DAR 7.12
[2] = system: HEK293T-Claudin18.2 human embryonic kidney cell transplantation tumor; experiment: 12.6 HEK293T-Claudin18.2 in Balb/c Nude mouse CDX model; format: in vivo, Balb/c Nude mice; details: DAR 7.40
[3] = system: NCI-N87-Claudin18.2 gastric cancer transplanted tumor; experiment: 12.1 NCI-N87-Claudin18.2 + Balb/c Nude mice CDX model; format: in vivo; details: 2C6.9-TL001 DAR 7.12, 2C6.9-TL002 DAR 6.95
[4] = system: NUGC-4 gastric cancer transplantation tumor; experiment: 12.7 NUGC-4 in Balb/c Nude mouse CDX model; format: in vivo, Balb/c Nude mice; details: DAR 7.40
[5] = system: NCI-N87-Claudin18.2 subcutaneous transplantation tumor; experiment: 12.5 NCI-N87-Claudin18.2 in Balb/c Nude mouse CDX model; format: in vivo, Balb/c Nude mice; details: DAR 7.40
[6] = system: NCI-N87-Claudin18.2 subcutaneous transplanted tumor; experiment: 12.2 2C6.9-TL001 versus 2C6.9 mAb + chemotherapy in CDX model; format: in vivo, Balb/c Nude mice; details: DAR 7.12
[7] = system: NUGC-4 subcutaneous transplantation tumor; experiment: 12.3 2C6.9-TL001 with different DAR values in CDX (NUGC-4) model; format: in vivo, Balb/c Nude mice; details: Day 21
[8] = 3 mg/kg tail vein twice a week x5, Day 17, 7 mice/group
[9] = 3 mg/kg tail vein twice a week x5, Day 17
[10] = 3 mg/kg tail vein twice a week x5, Day 24, 7 mice/group
[11] = 3 mg/kg tail vein twice a week x5, Day 24
[12] = 10 mg/kg tail vein twice a week x5, Day 17, 7 mice/group
[13] = 10 mg/kg tail vein twice a week x5, Day 17
[14] = 10 mg/kg tail vein twice a week x5, Day 24, 7 mice/group
[15] = 10 mg/kg tail vein twice a week x5, Day 24
[16] = 0.3 mg/kg tail vein twice a week x6, Day 21, 8 mice/group
[17] = 0.3 mg/kg tail vein twice a week x6, Day 21
[18] = 1 mg/kg tail vein twice a week x6, Day 21, 8 mice/group
[19] = 1 mg/kg tail vein twice a week x6, Day 21
[20] = 3 mg/kg tail vein twice a week x6, Day 21, 8 mice/group
[21] = 3 mg/kg tail vein twice a week x6, Day 21
[22] = 1 mg/kg tail vein twice a week x6, Day 21, 7 mice/group
[23] = 3 mg/kg tail vein twice a week x6, Day 21, 7 mice/group
[24] = 10 mg/kg tail vein twice a week x6, Day 21, 8 mice/group
[25] = 10 mg/kg tail vein twice a week x6, Day 21
[26] = 0.3 mg/kg tail vein twice a week x6, Day 31, 8 mice/group
[27] = 0.3 mg/kg tail vein twice a week x6, Day 31
[28] = 1 mg/kg tail vein twice a week x6, Day 31
[29] = 3 mg/kg tail vein twice a week x6, Day 31, 8 mice/group
[30] = 3 mg/kg tail vein twice a week x6, Day 31
[31] = 3 mg/kg tail vein twice a week for 3 weeks, Day 21, 7 mice/group
[32] = 3 mg/kg tail vein twice a week for 3 weeks, Day 21
[33] = 3 mg/kg tail vein twice a week, Day 11, 7 mice/group
[34] = 3 mg/kg tail vein twice a week, Day 11
[35] = 5.25 mg/kg tail vein twice a week for 3 weeks
[36] = 17.5 mg/kg tail vein twice a week for 3 weeks

B1: 2C6.9-TL001: ADC prepared by conjugating TL001 with humanized anti-Claudin 18.2 monoclonal antibody 2C6.9-hz21 (conjugate)
heavy: QVQLQESGPGLVKPSETLSLTCTVSGFSLTRYGVSWIRQPPGKGLEWIGVIWGEGNTNYNPSLKSRVTISKDSSKSQVSLKLSSVTAADTAVYYCARVNFGNALDYWGQGTLVTVSS[human IgG1 constant region not spelt out]
light: DIVMTQSPDSLAVSLGERATINCKSSQSLLNSGNQKNYLTWYQQKPGQPPKLLIYWASTRDSGVPDRFSGSGSGTDFTLTISSLQAEDVAVYYCQNDFIFPLTFGGGTKVEIKRTVAAPSVFIFPPSDEQLKSGTASVVCLLNNFYPREAKVQWKVDNALQSGNSQESVTEQDSKDSTYSLSSTLTLSKADYEKHKVYACEVTHQGLSSPVTKSFNRGEC
Tumor regression CR (mice with complete regression) [1, 8]: 0 | Tumor regression PR (mice with partial regression) [1, 8]: 4 | T/C (%) [1, 9]: 23.96% | TGI (%) [1, 9]: 94.72% | Tumor volume (mm^3) (x ± SEM) [1, 9]: 187.00 ± 46.07 mm^3 | Tumor regression CR (mice with complete regression) [1, 10]: 0 | Tumor regression PR (mice with partial regression) [1, 10]: 6 | T/C (%) [1, 11]: 8.78% | TGI (%) [1, 11]: 103.76% | Tumor volume (mm^3) (x ± SEM) [1, 11]: 111.83 ± 42.26 mm^3 | Tumor regression CR (mice with complete regression) [1, 12]: 7 | Tumor regression PR (mice with partial regression) [1, 12]: 0 | T/C (%) [1, 13]: 0.00% | Tumor volume (mm^3) (x ± SEM) [1, 13]: 0.00 ± 0.00 mm^3 | Tumor regression CR (mice with complete regression) [1, 14]: 7 | Tumor regression PR (mice with partial regression) [1, 14]: 0 | T/C (%) [1, 15]: 0.00% | TGI (%) [1, 15]: 113.70% | Tumor volume (mm^3) (x ± SEM) [1, 15]: 0.00 ± 0.00 mm^3 | Tumor regression CR (mice with complete regression) [2, 16]: 1 | Tumor regression PR (mice with partial regression) [2, 16]: 0 | T/C (%) [2, 17]: 32.83% | TGI (%) [2, 17]: 70.99% | Tumor volume (mm^3) (x ± SEM) [2, 17]: 507.95 ± 99.30 mm^3 | Tumor regression CR (mice with complete regression) [2, 18]: 0 | Tumor regression PR (mice with partial regression) [2, 18]: 2 | T/C (%) [2, 19]: 10.13% | TGI (%) [2, 19]: 94.98% | Tumor volume (mm^3) (x ± SEM) [2, 19]: 156.48 ± 23.87 mm^3 | Tumor regression CR (mice with complete regression) [2, 20]: 6 | Tumor regression PR (mice with partial regression) [2, 20]: 2 | T/C (%) [2, 21]: 0.92% | TGI (%) [2, 21]: 182.81% | Tumor volume (mm^3) (x ± SEM) [2, 21]: 14.36 ± 3.63 mm^3 | Tumor regression CR (mice with complete regression) [3, 22]: 0 | Tumor regression PR (mice with partial regression) [3, 22]: 4 | T/C (%) [3, 19]: 29.96% | TGI (%) [3, 19]: 96.03% | Tumor volume (mm^3) (x ± SEM) [3, 19]: 143.91 ± 28.23 mm^3 | Tumor regression CR (mice with complete regression) [3, 23]: 4 | Tumor regression PR (mice with partial regression) [3, 23]: 3 | T/C (%) [3, 21]: 2.70% | TGI (%) [3, 21]: 133.50% | Tumor volume (mm^3) (x ± SEM) [3, 21]: 12.96 ± 4.62 mm^3 | Tumor regression CR (mice with complete regression) [4, 20]: 0/0 | Tumor regression PR (mice with partial regression) [4, 20]: 0/0 | T/C (%) [4, 21]: 48.95% | TGI (%) [4, 21]: 56.62% | Tumor volume (mm^3) (x ± SEM) [4, 21]: 385.67 ± 35.09 mm^3 | Tumor regression CR (mice with complete regression) [4, 24]: 0 | Tumor regression PR (mice with partial regression) [4, 24]: 2 | T/C (%) [4, 25]: 19.09% | TGI (%) [4, 25]: 90.28% | Tumor volume (mm^3) (x ± SEM) [4, 25]: 148.23 ± 25.52 mm^3 | Tumor regression CR (mice with complete regression) [5, 26]: 0/0 | Tumor regression PR (mice with partial regression) [5, 26]: 0/0 | T/C (%) [5, 27]: 74.04% | TGI (%) [5, 27]: 34.04% | Tumor volume (mm^3) (x ± SEM) [5, 27]: 437.74 ± 16.68 mm^3 | Tumor regression CR (mice with complete regression) ([5]; 1 mg/kg tail vein twice a week x6, Day 31, 8 mice/group): 0 | T/C (%) [5, 28]: 18.13% | TGI (%) [5, 28]: 122.57% | Tumor volume (mm^3) (x ± SEM) [5, 28]: 107.06 ± 9.63 mm^3 | Tumor regression CR (mice with complete regression) [5, 29]: 4 and 4/4 | Tumor regression PR (mice with partial regression) [5, 29]: 4 and 4/4 | T/C (%) [5, 30]: 3.69% | TGI (%) [5, 30]: 184.22% | Tumor volume (mm^3) (x ± SEM) [5, 30]: 21.83 ± 2.26 mm^3 | Tumor regression CR (mice with complete regression) [6, 31]: 5 | Tumor regression PR (mice with partial regression) [6, 31]: 2 | TGI (%) [6, 32]: 125.73% | Tumor volume (mm^3) (x ± SEM) [6, 32]: 17.75 ± 3.97 mm^3 | Tumor regression CR (mice with complete regression) [6, 33]: 0 | Tumor regression PR (mice with partial regression) [6, 33]: 6 | TGI (%) [6, 34]: 121.68% | Tumor volume (mm^3) (x ± SEM) [6, 34]: 62.76 ± 9.98 mm^3

B2: 2C6.9-TL001 (DAR: 3.79): 2C6.9-TL001 from conjugation feed ratio 5:1, toxin-to-antibody ratio 3.79 (conjugate)
heavy: B1 heavy
light: B1 light
TGI (%) [7, 35]: 43.76% | Tumor volume (mm^3) (x ± SEM) [7, 35]: 736.12 ± 92.59 mm^3 | TGI (%) [7, 36]: 66.94% | Tumor volume (mm^3) (x ± SEM) [7, 36]: 477.42 ± 67.90 mm^3
